# Measurements reported in PubChem BioAssay AID1745853 (National Center for Advancing Translational Sciences (NCATS), 2022).
# “And” between values parts separate entries of the source, which are not always exact repeats. Equal entries are not always repeated. This is one part of the list. The main result of the screen is listed elsewhere. These columns were measured beside it and carry no call.
# What was measured:
# Assay in all cases: Primary Screen for Target Class Profiling of Small Molecule Inhibitors of Methyltransferases
# [1] = target: Glycine N-methyltransferase (Homo sapiens) (UniProt Q14749); conditions: purified enzyme, MTase-Glo SAH luminescence; measured here: GNMT inhibition; at 40 µM; stronger effect = lower value
# Summary of the method: (§1)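 Each enzyme was reacted with SAM and its substrate, with compounds tested once at 40 uM; SAH formed was read by MTase-Glo luminescence.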
# [2] = target: Guanidinoacetate N-methyltransferase (Homo sapiens) (UniProt Q14353); conditions: purified enzyme, MTase-Glo SAH luminescence; measured here: GAMT inhibition; at 40 µM; stronger effect = lower value
# Summary of the method: as §1
# [3] = target: Histamine N-methyltransferase (Homo sapiens) (UniProt P50135); conditions: purified enzyme, MTase-Glo SAH luminescence; measured here: HNMT inhibition; at 40 µM; stronger effect = lower value
# Summary of the method: as §1
# [4] = target: Nicotinamide N-methyltransferase (Homo sapiens) (UniProt P40261); conditions: purified enzyme, MTase-Glo SAH luminescence; measured here: NNMT inhibition; at 40 µM; stronger effect = lower value
# Summary of the method: as §1
# [5] = target: Phenylethanolamine N-methyltransferase (Homo sapiens) (UniProt P11086); conditions: purified enzyme, MTase-Glo SAH luminescence; measured here: PNMT inhibition; at 40 µM; stronger effect = lower value
# Summary of the method: as §1
# On the % scale 0 is the no-effect control and ±100 the full control effect.
Structure (SMILES),"activity change, negative = inhibition [1] [%]","activity change, negative = inhibition [2]","activity change, negative = inhibition [3] [%]","activity change, negative = inhibition [4]","activity change, negative = inhibition [5]"
Cn1ccnc1CN1CC2(CCN(C(=O)C3CC3)CC2)CC1C(=O)O (stereo not given),0.988,3.48%,1.39,-1.46%,1.92%
CCn1c(CO)nnc1C1CC(NC(=O)Cn2ncc3ccccc32)C1 (stereo not given),-2.71,-1.32%,-0.545,-0.362%,-0.1%
Cc1cc(C)n(-c2ccc(C(=O)N[C@H]3C[C@H]4C(=O)NCC(=O)N4C3)cc2)n1,-1.19,1.18%,-0.433,0.977%,3.85%
CCCS(=O)(=O)Nc1ccc(F)c(C(=O)c2c[nH]c3ncc(-c4ccc(Cl)cc4)cc23)c1F,-8.45,-12.7%,1.44,-51%,-19.8%
Cc1cccc(CN2C(=O)c3ccc(-c4ccco4)n3CC2(C)C(=O)NCc2ccc(Cl)cc2)c1 (stereo not given),-5.7,2.58%,-4.49,-8.35%,-6.87%
Cn1ccnc1CCOC(c1cc2nccc(C(=O)O)c2[nH]1)c1ccccc1Cl (stereo not given),-1.71,-3.55%,-6.27,-18.1%,1.15%
COc1cc(C2Nc3c(cccc3C(F)(F)F)C3C=CCC32)cc(Br)c1OC (stereo not given),-8.79,-0.232%,-9.05,-10.5%,-9.98%
CC(C)NC(=O)c1ccc2c(=O)n(C(C)C)c3nn(Cc4ccc(F)cc4)c(=O)n3c2c1,2.52,4.53%,8.79,-3%,5.33%
CSCCC(=O)N1CCCC1C(=O)Nc1cccc(-n2cccn2)c1 (stereo not given),-28.3,-6.42%,-2.68,-9.01%,-2.34%
CCCC1c2cccn2CCN1C(=O)NC1(CC(=O)OCC)CCCCC1 (stereo not given),-6.16,4.68%,-16.9,-6.79%,-35.9%
COc1ccc(CNC(=O)c2cnc3c(c2)N(C(=O)CCc2ccccc2)CCC3)cc1OC,-11.9,-1.58%,-12.8,-7.71%,5.76%
COc1ccccc1CNC(=O)C1(C)Cn2c(cc3ccccc32)C(=O)N1Cc1cccnc1 (stereo not given),-3.63,3.71%,-2.23,-8.47%,-4.78%
COCC(=O)N[C@@H]1CN(C(=O)Cc2cccc(OC)c2)CC[C@@H]1c1nc(C)no1,-5.29,-2.18%,-2.29,-4.35%,12.8%
CCCCNC(=O)NS(=O)(=O)c1ccc(C)cc1,2.14,9.55%,3.54,-2.65%,5.48%
C[C@@H]1O[C@@H](O[C@H]2[C@H](Oc3cc(O)c(C(=O)CCc4ccc(O)cc4)c(O)c3)O[C@H](CO)[C@@H](O)[C@@H]2O)[C@H](O)[C@H](O)[C@H]1O,4.61,3.69%,12,-8%,2.29%
COc1cc(/C=C/C(=O)OC2[C@H](O)CC(O)(C(=O)O)C[C@H]2O)ccc1O (stereo not given in full),3.57,2.34%,8.77,-8.38%,-3.36%
CCC(C)NC(=O)c1ccc2c(=O)n(C)c3nn(CC(=O)c4cccc(OC)c4)c(=O)n3c2c1 (stereo not given),4.69,1.85%,8.72,-0.893%,7.29%
CC1(C(=O)NC2CCCCCCC2)Cn2c(ccc2-c2ccccc2)C(=O)N1CCN1CCOCC1 (stereo not given),1.81,2.92%,4.66,-5.17%,2.7%
CCC(C)NC(=O)c1ccc2c(=O)n(C)c3nnc(SCc4ccccc4F)n3c2c1 (stereo not given),5.49,0.435%,6.65,-1.74%,2.36%
COc1c(C(O)CC(C)C)ccc2c1C(=O)OCc1cc(C)cc(O)c1O2 (stereo not given),5.08,2.45%,9.09,-12.5%,4.49%
CCCCN1C(=O)c2ccc(-c3ccco3)n2CC1(C)C(=O)NC1CCCCCC1 (stereo not given),-6.06,3.29%,0.274,-5.43%,-0.51%
CC1OC(O[C@H]2CC[C@@]3(C)C(CC[C@]4(C)C3CC=C3C5CC(C)(C)CC[C@]5(C(=O)OC5OC(CO)C(OC6OC(COC7OCC(O)C(O)C7O)C(O)C(O)C6O)C(O)C5O)CC[C@]34C)C2(C)C)C(O)C(O)C1OC1OCC(OC2OCC(O)C(O)C2O)C(O)C1O (stereo not given in full),4.07,15%,11.1,2.97%,1.63%
C[C@@H](NC(=O)c1ccc(C#Cc2cccc(F)c2)cn1)C(C)(C)O,-4.72,-1.38%,8.68,-13.5%,-2.02%
COc1ccc([C@H](C)NC(=O)c2c(C)noc2-c2cccs2)cc1,-0.454,1.5%,-2.93,-3.23%,10.8%
CC1=CC(=O)C(=C(C)C)CC2C(C)(O)CCC12O (stereo not given),3.16,3.61%,11.7,-11.5%,6.81%
CCOc1ccc(NS(=O)(=O)c2ccc3[nH]c4c(c3c2)CCCC4)cc1,0.621,1.9%,2,2.56%,3.4%
COc1cccc(CN2C(=O)c3cc4occc4n3CC2(C)C(=O)NC2CCCCC2)c1 (stereo not given),2.24,3.85%,5.64,0.085%,-0.852%
CN1C(=O)c2cc(C(=O)NC3CCN(Cc4ccccc4)CC3)nn2CC1(C)C(=O)NCc1ccccc1 (stereo not given),-4.06,-4.25%,-2.05,-8.98%,-2.84%

Structure (SMILES),"activity change, negative = inhibition [1] [%]","activity change, negative = inhibition [2]","activity change, negative = inhibition [3] [%]","activity change, negative = inhibition [4]","activity change, negative = inhibition [5]"
CCCNC(=O)N1CCC(N2CC(OCC3CC3)C23CCCCC3)CC1 (stereo not given),-1.18,-3.57%,-1.6,-5.66%,-0.947%
Cc1ccc(NC(=O)Cn2nc3n(CC(C)C)c(=O)c4ccc(C(=O)NCC(C)C)cc4n3c2=O)cc1,6.56,0.221%,7.9,4.18%,4.16%
CC1(C(=O)NC2CCCCC2)Cn2c(cc3occc32)C(=O)N1Cc1ccc(Cl)cc1 (stereo not given),-11.3,-6.33%,-3.51,-11.4%,-8.56%
Cc1cccc(NS(=O)(=O)c2ccc3[nH]c4c(c3c2)CCCC4)c1C,-2.76,2.56%,1.13,-10.4%,0.688%
CC(C)c1nc(-c2ccc(NC(=O)Nc3cccc(C(F)(F)F)c3)c3ccccc23)c2c(N)nccn12,-5.23,-19.3%,-58,-47.1%,-17.2%
CC(C)CCNC(=O)C1(C)Cn2nc(C(=O)NCCc3c[nH]c4ccccc34)cc2C(=O)N1C (stereo not given),2.88,0%,5.71,6.61%,1.91%
Cc1cc(=O)n(CC(=O)NC(C)CCc2ccccc2)c(N2CCOCC2)n1 (stereo not given),-3.83,-4.74%,-2.7,-7.7%,0.54%
Cc1ccc(CNS(=O)(=O)c2ccc3c(c2)n(C)c(=O)n3C)cc1,0.788,2.94%,4.13,3%,-0.913%
Cn1cc(-c2cc(=O)c3ccnc(NCc4ccc(F)cc4)c3o2)cn1,-10.9,-11.4%,-4.75,-21.4%,-13.3%
O=C(N[C@H](c1ccccc1)C1CC(O)C1)c1ccc(-n2cccn2)cc1 (stereo not given in full),-1.61,-2.32%,-9.66,-7.48%,8.77%
COc1cccc(CN2C(=O)CCCCC2C(=O)NC2CCS(=O)(=O)C2)c1 (stereo not given),-4.43,0.091%,-0.787,-4.75%,-0.787%
CN(C)c1ccc(-c2nnc3n(Cc4ccc(F)cc4)c(=O)c4ccccc4n23)cc1,-18.8,0%,0.982,3.56%,-0.534%
CCCn1c(=O)c2ccc(C(=O)NC3CCCCC3)cc2n2c(=O)n(CC(=O)c3ccc(C)cc3C)nc12,2.86,0%,9.52,6.91%,8.51%
CC1CCC(C(=O)N(c2cc(C#CC(C)(C)C)sc2C(=O)O)C2CCC(O)CC2)CC1 (stereo not given),1.79,23.5%,10.2,0.519%,13.1%
C=C1CC[C@@H]2[C@](C)(CO)[C@H](O)CC[C@@]2(C)[C@@H]1C/C=C1/C(=O)OCC1OC(=O)/C(=C/CO)C(O)C[C@@H]1C(=C)CC[C@@H]2[C@](C)(CO)[C@H](O)CC[C@]21C (stereo not given in full),0,-16.9%,-1.79,-27.9%,-30.6%
CC(CCO)CCC1C2(C)CCCC(C)(C)C2CC[C@@]1(C)O (stereo not given in full),-2.02,15.8%,2.67,-15.2%,8.13%
COC(=O)c1ccccc1N1C(=O)CSc2c(c3ccccc3n2C)C1C(=O)NCc1ccccc1OC (stereo not given),6.48,1.67%,2.69,1.94%,5.45%
CC(C(O)/C=C/C(C)(C)O)C1CCC2(C)C3C(=O)C=C4C(CCC(O)C4(C)C)C3(C)CCC12C (stereo not given),-0.177,7.14%,8.92,-8.25%,4.56%
CCCN1C(=O)Cc2cc(C(=O)N3CCN(c4ccccc4Cl)CC3)ccc21,-7.97,-4.35%,-7.1,-21.2%,-14.9%
Cc1cccc(Cn2nc3n(C(C)C)c(=O)c4ccc(C(=O)NC(C)C)cc4n3c2=O)c1,0.648,0%,3.59,-4.1%,3.67%
Cc1ccsc1-c1[nH]nc2ncc(-c3ccnn3C)nc12,-46.2,-22.7%,-44.1,-15.7%,-10.7%
O=C(CCc1cc2n(n1)CCCNC2)N1CCCC(c2nnc3ccccn23)C1 (stereo not given),-4.66,-5.49%,-3.51,-6.85%,-10.8%
CN(C)C1CCN(C(=O)c2ccc(NC(=O)Nc3ccc(-c4nc(N5CCOCC5)nc(N5CCOCC5)n4)cc3)cc2)CC1,-0.593,12% and 8.33%,8.44,-5.62% and -8.46%,7.02% and 1.9%
CC(C)CNC(=O)c1ccc2c(=O)n(CC(C)C)c3nn(C)c(=O)n3c2c1,5.16,2.17%,10.7,6.82%,7.86%
CC(C)Cn1c(=O)c2ccc(C(=O)NC3CCCC3)cc2n2c(SCC(=O)NC(C)C)nnc12,-5.11,0.939%,-3.06,-0.63%,-1.59%
COc1cc(NC(=O)c2cc3n(n2)CC(C)(C(=O)NC2CCCCC2)N(C)C3=O)cc(OC)c1 (stereo not given),1.45,0%,4.44,3.51%,2.15%
C[C@H]1CC[C@@]2(OC1)O[C@H]1CC3C4CC[C@H]5C[C@@H](O[C@@H]6O[C@H](CO)[C@H](O[C@@H]7O[C@H](CO)[C@@H](O)[C@H](O[C@@H]8OC[C@@H](O)[C@H](O)[C@H]8O)[C@H]7O[C@@H]7O[C@H](CO)[C@@H](O)[C@H](O)[C@H]7O)[C@H](O)[C@H]6O)[C@H](O)C[C@]5(C)C4=CC(=O)[C@]3(C)[C@H]1[C@@H]2C (stereo not given in full),0,6.25%,5.41,-5.29%,7.33%
